The target in the test is T1, biotinylated human USP18 (human, UniProt Q9UMW8 16-372, biotin (site and chemistry not stated)).
T1 sequence (looked up): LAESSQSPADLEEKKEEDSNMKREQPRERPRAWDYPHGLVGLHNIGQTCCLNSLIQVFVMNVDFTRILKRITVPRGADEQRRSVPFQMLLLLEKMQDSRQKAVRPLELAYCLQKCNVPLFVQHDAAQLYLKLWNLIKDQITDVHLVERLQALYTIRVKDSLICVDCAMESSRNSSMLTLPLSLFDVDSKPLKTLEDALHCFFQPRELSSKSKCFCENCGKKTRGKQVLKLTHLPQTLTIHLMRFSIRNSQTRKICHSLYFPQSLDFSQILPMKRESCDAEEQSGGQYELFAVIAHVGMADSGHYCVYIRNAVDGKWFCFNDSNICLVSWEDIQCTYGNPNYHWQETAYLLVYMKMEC
In words: BLI. Background: Biolayer interferometry detects binding as a change in optical thickness at a sensor tip.

The values below come from publication PMC11022047 (iScience, 2024).

B1: pro-human ISG15 ([…]) C78S (natural protein)
chain: not shown
As for B1, binding was characterised by a dissociation constant (Kd) of 40 nM.
